# Results taken from article PMC4811506.
# Chains of the proteins cited; added tags and fusions are not shown.
# UniProt Q8IYD8: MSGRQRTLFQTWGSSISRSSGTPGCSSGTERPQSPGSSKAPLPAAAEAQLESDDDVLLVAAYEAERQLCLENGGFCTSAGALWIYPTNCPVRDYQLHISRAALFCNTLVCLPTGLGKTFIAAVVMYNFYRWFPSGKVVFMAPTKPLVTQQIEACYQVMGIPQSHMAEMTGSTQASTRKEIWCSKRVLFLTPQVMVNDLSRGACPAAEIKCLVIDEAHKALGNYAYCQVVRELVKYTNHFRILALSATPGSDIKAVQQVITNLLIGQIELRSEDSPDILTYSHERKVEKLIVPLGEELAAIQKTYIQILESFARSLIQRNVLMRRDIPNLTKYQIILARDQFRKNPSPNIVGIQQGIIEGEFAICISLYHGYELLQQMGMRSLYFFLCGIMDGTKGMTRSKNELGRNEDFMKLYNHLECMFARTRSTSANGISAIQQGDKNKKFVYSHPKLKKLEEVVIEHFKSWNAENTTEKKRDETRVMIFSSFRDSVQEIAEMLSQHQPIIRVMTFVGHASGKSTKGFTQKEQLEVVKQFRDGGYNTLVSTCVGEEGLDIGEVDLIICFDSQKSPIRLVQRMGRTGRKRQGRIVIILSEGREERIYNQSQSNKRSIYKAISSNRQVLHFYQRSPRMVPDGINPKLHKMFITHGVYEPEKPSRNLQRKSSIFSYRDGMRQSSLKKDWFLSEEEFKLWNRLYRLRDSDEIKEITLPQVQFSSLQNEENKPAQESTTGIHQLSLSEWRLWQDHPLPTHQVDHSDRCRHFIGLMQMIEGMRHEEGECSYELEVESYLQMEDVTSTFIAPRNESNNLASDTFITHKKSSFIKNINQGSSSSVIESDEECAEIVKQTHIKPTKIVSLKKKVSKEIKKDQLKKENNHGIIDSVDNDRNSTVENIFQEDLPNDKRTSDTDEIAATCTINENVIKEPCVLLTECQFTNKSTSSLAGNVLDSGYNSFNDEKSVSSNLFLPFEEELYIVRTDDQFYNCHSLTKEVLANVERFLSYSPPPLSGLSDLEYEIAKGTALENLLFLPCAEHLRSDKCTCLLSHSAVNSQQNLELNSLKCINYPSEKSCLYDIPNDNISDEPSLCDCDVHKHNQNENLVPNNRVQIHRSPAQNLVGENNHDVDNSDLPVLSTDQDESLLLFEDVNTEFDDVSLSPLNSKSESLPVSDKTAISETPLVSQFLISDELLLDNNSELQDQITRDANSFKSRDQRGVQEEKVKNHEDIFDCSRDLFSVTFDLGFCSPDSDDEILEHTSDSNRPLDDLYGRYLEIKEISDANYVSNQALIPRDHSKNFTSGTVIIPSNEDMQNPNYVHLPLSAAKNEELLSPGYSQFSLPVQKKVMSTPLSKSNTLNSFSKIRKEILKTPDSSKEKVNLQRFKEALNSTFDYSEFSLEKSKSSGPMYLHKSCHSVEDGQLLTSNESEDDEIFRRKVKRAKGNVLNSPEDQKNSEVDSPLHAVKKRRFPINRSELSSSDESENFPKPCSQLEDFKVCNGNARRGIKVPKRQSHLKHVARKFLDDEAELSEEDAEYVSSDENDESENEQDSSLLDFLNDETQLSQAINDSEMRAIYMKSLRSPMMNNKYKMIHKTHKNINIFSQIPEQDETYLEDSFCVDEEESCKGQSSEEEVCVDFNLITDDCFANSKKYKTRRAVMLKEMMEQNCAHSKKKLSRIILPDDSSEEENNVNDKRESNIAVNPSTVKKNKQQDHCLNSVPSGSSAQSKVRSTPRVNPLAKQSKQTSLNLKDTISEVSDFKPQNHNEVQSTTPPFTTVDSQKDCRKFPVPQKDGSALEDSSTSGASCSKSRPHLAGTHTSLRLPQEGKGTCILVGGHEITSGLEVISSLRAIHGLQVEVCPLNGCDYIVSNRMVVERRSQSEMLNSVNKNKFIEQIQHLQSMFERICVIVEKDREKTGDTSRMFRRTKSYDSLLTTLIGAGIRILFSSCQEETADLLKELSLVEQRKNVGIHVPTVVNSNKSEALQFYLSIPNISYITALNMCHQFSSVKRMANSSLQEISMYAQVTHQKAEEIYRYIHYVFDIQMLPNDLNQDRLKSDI
# UniProt Q9NVI1: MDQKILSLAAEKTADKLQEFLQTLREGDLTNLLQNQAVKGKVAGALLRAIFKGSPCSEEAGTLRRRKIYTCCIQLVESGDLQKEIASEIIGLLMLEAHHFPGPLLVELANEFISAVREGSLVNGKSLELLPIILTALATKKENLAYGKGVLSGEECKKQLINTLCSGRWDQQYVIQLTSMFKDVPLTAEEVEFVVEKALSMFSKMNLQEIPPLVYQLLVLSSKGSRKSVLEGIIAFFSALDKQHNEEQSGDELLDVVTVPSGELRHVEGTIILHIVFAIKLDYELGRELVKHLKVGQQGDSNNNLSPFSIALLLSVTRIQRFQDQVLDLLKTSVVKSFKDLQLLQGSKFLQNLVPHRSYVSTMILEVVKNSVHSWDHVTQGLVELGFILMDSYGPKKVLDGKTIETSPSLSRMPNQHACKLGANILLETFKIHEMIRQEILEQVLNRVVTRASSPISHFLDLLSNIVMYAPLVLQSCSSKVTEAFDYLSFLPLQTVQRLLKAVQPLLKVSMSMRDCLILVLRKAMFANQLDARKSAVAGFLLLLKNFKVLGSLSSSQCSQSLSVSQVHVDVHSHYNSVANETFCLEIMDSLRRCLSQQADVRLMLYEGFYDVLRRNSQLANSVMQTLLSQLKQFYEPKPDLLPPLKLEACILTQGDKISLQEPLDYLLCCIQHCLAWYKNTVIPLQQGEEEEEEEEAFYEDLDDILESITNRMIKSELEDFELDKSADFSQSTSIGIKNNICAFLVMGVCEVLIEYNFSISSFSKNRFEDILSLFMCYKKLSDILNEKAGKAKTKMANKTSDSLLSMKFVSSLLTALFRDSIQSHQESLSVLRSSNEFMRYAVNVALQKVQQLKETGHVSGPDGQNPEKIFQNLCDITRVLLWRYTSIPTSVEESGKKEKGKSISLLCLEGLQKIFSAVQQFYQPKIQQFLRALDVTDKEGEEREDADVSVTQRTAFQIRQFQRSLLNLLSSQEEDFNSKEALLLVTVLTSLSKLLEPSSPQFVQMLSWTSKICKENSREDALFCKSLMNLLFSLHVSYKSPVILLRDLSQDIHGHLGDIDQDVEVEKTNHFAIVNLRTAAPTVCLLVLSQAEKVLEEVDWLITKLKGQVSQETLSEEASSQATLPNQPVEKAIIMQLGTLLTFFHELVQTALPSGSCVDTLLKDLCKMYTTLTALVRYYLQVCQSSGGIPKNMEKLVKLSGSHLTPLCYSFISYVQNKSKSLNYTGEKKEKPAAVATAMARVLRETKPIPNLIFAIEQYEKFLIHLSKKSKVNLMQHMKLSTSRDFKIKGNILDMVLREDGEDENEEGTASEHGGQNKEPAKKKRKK
# UniProt Q8N2Z9: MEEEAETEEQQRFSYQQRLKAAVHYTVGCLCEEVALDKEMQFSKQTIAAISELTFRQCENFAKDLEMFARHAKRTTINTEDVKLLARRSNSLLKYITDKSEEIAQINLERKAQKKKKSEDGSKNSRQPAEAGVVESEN
# UniProt Q92949: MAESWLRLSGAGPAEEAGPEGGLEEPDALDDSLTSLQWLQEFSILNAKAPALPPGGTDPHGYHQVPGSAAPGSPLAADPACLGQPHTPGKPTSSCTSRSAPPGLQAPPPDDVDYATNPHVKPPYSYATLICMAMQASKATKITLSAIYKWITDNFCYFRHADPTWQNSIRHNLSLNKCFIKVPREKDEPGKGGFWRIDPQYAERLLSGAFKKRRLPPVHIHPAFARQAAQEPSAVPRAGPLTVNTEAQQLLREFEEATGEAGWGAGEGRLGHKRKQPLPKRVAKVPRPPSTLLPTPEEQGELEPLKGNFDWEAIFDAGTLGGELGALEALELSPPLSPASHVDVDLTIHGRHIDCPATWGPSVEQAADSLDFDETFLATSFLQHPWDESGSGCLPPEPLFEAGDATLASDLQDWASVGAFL
# These are yes or no findings as the source states them, for the method shown. Binding seen in cells or lysates may run through a third protein. Some entries that bind do so weakly or less than the wild type.
# Target: His-Flag tagged FANCM (UniProt Q8IYD8)
# Experiment: co-IP; two-step affinity purification of HF-FANCM from nuclear extract of HT1080 cells (anti-Flag M2 agarose, elution with 3xFlag peptide, then Talon metal affinity resin with 3 mM imidazole); eluate immunoblotted
row,Molecule,binding
1,FANCI (from UniProt Q9NVI1 1-1328),binds
2,"FAAP20 (protein, UniProt Q6NZ36 1-180) MEAARRPRLGLSRRRPRPAGGPSGGRPWFLLGGDERERLWAELLRTVSPELILDHEVPSLPAFPGQEPRCGPEPTEVFTVGPKTFSWTPFPPDLWGPGRSYRLLHGAGGHLESPARSLPQRPAPDPCRAPRVEQQPSVEGAAALRSCPMCQKEFAPRLTQLDVDSHLAQCLAESTEDVTW",binds
3,"FANCA (protein, UniProt O15360 1-1455) MSDSWVPNSASGQDPGGRRRAWAELLAGRVKREKYNPERAQKLKESAVRLLRSHQDLNALLLEVEGPLCKKLSLSKVIDCDSSEAYANHSSSFIGSALQDQASRLGVPVGILSAGMVASSVGQICTAPAETSHPVLLTVEQRKKLSSLLEFAQYLLAHSMFSRLSFCQELWKIQSSLLLEAVWHLHVQGIVSLQELLESHPDMHAVGSWLFRNLCCLCEQMEASCQHADVARAMLSDFVQMFVLRGFQKNSDLRRTVEPEKMPQVTVDVLQRMLIFALDALAAGVQEESSTHKIVRCWFGVFSGHTLGSVISTDPLKRFFSHTLTQILTHSPVLKASDAVQMQREWSFARTHPLLTSLYRRLFVMLSAEELVGHLQEVLETQEVHWQRVLSFVSALVVCFPEAQQLLEDWVARLMAQAFESCQLDSMVTAFLVVRQAALEGPSAFLSYADWFKASFGSTRGYHGCSKKALVFLFTFLSELVPFESPRYLQVHILHPPLVPGKYRSLLTDYISLAKTRLADLKVSIENMGLYEDLSSAGDITEPHSQALQDVEKAIMVFEHTGNIPVTVMEASIFRRPYYVSHFLPALLTPRVLPKVPDSRVAFIESLKRADKIPPSLYSTYCQACSAAEEKPEDAALGVRAEPNSAEEPLGQLTAALGELRASMTDPSQRDVISAQVAVISERLRAVLGHNEDDSSVEISKIQLSINTPRLEPREHMAVDLLLTSFCQNLMAASSVAPPERQGPWAALFVRTMCGRVLPAVLTRLCQLLRHQGPSLSAPHVLGLAALAVHLGESRSALPEVDVGPPAPGAGLPVPALFDSLLTCRTRDSLFFCLKFCTAAISYSLCKFSSQSRDTLCSCLSPGLIKKFQFLMFRLFSEARQPLSEEDVASLSWRPLHLPSADWQRAALSLWTHRTFREVLKEEDVHLTYQDWLHLELEIQPEADALSDTERQDFHQWAIHEHFLPESSASGGCDGDLQAACTILVNALMDFHQSSRSYDHSENSDLVFGGRTGNEDIISRLQEMVADLELQQDLIVPLGHTPSQEHFLFEIFRRRLQALTSGWSVAASLQRQRELLMYKRILLRLPSSVLCGSSFQAEQPITARCEQFFHLVNSEMRNFCSHGGALTQDITAHFFRGLLNACLRSRDPSLMVDFILAKCQTKCPLILTSALVWWPSLEPVLLCRWRRHCQSPLPRELQKLQEGRQFASDFLSPEAASPAPNPDWLSAAALHFAIQQVREENIRKQLKKLDCEREELLVFLFFFSLMGLLSSHLTSNSTTDLPKAFHVCAAILECLEKRKISWLALFQLTESDLRLGRLLLRVAPDQHTRLLPFAFYSLLSYFHEDAAIREEAFLHVAVDMYLKLVQLFVAGDTSTVSPPAGRSLELKGQGNPVELITKARLFLLQLIPRCPKKSFSHVAELLADRGDCDPEVSAALQSRQQAAPDADLSQEPHLF",binds

# More lines, now with the values ahead:
row,binding,Molecule
1,binds,MHF1 (from UniProt Q8N2Z9 1-138)
2,no binding,FoxJ1 (from UniProt Q92949 1-421)
3,no binding,"FoxA2 (protein, UniProt Q9Y261 1-457) MLGAVKMEGHEPSDWSSYYAEPEGYSSVSNMNAGLGMNGMNTYMSMSAAAMGSGSGNMSAGSMNMSSYVGAGMSPSLAGMSPGAGAMAGMGGSAGAAGVAGMGPHLSPSLSPLGGQAAGAMGGLAPYANMNSMSPMYGQAGLSRARDPKTYRRSYTHAKPPYSYISLITMAIQQSPNKMLTLSEIYQWIMDLFPFYRQNQQRWQNSIRHSLSFNDCFLKVPRSPDKPGKGSFWTLHPDSGNMFENGCYLRRQKRFKCEKQLALKEAAGAAGSGKKAAAGAQASQAQLGEAAGPASETPAGTESPHSSASPCQEHKRGGLGELKGTPAAALSPPEPAPSPGQQQQAAAHLLGPPHHPGLPPEAHLKPEHHYAFNHPFSINNLMSSEQQHHHSHHHHQPHKMDLKAYEQVMHYPGYGSPMPGSLAMGPVTNKTGLDASPLAADTSYYQGVYSRPIMNSS"
4,binds,"FAAP100 (protein, UniProt Q0VG06 1-881) MAGAAPRVRYLAGFCCPLGGLAAGKPRVLCHEAEVFLSTGSELVYVYDQEGGLLTAAFRFPDQVWHLELLAPRRLLYALCARRGLYCLSLDHPGRSRSTSQDDRDSEDGDQPSPVIPVDPDACILPDAALCAFTLLDSVLVTLVQGPARWKMQLFEQPCPGEDPRPGGQIGEVELSSYTPPAGVPGKPAAPHFLPVLCSVSPSGSRVPHDLLGGSGGFTLEDALFGLLFGADATLLQSPVVLCGLPDGQLCCVILKALVTSRSAPGDPNALVKILHHLEEPVIFIGALKTEPQAAEAAENFLPDEDVHCDCLVAFGHHGRMLAIKASWDESGKLVPELREYCLPGPVLCAACGGGGRVYHSTPSDLCVVDLSRGSTPLGPEQPEEGPGGLPPMLCPASLNICSVVSLSASPRTHEGGTKLLALSAKGRLMTCSLDLDSEMPGPARMTTESAGQKIKELLSGIGNISERVSFLKKAVDQRNKALTSLNEAMNVSCALLSSGTGPRPISCTTSTTWSRLQTQDVLMATCVLENSSSFSLDQGWTLCIQVLTSSCALDLDSACSAITYTIPVDQLGPGARREVTLPLGPGENGGLDLPVTVSCTLFYSLREVVGGALAPSDSEDPFLDECPSDVLPEQEGVCLPLSRHTVDMLQCLRFPGLAPPHTRAPSPLGPTRDPVATFLETCREPGSQPAGPASLRAEYLPPSVASIKVSAELLRAALKDGHSGVPLCCATLQWLLAENAAVDVVRARALSSIQGVAPDGANVHLIVREVAMTDLCPAGPIQAVEIQVESSSLADICRAHHAVVGRMQTMVTEQATQGSSAPDLRVQYLRQIHANHETLLREVQTLRDRLCTEDEASSCATAQRLLQVYRQLRHPSLILL"
5,no binding,"FoxM1 (protein, UniProt Q08050 1-763) MKTSPRRPLILKRRRLPLPVQNAPSETSEEEPKRSPAQQESNQAEASKEVAESNSCKFPAGIKIINHPTMPNTQVVAIPNNANIHSIITALTAKGKESGSSGPNKFILISCGGAPTQPPGLRPQTQTSYDAKRTEVTLETLGPKPAARDVNLPRPPGALCEQKRETCADGEAAGCTINNSLSNIQWLRKMSSDGLGSRSIKQEMEEKENCHLEQRQVKVEEPSRPSASWQNSVSERPPYSYMAMIQFAINSTERKRMTLKDIYTWIEDHFPYFKHIAKPGWKNSIRHNLSLHDMFVRETSANGKVSFWTIHPSANRYLTLDQVFKPLDPGSPQLPEHLESQQKRPNPELRRNMTIKTELPLGARRKMKPLLPRVSSYLVPIQFPVNQSLVLQPSVKVPLPLAASLMSSELARHSKRVRIAPKVLLAEEGIAPLSSAGPGKEEKLLFGEGFSPLLPVQTIKEEEIQPGEEMPHLARPIKVESPPLEEWPSPAPSFKEESSHSWEDSSQSPTPRPKKSYSGLRSPTRCVSEMLVIQHRERRERSRSRRKQHLLPPCVDEPELLFSEGPSTSRWAAELPFPADSSDPASQLSYSQEVGGPFKTPIKETLPISSTPSKSVLPRTPESWRLTPPAKVGGLDFSPVQTSQGASDPLPDPLGLMDLSTTPLQSAPPLESPQRLLSSEPLDLISVPFGNSSPSDIDVPKPGSPEPQVSGLAANRSLTEGLVLDTMNDSLSKILLDISFPGLDEDPLGPDNINWSQFIPELQ"
